Molecular target: T1, ClpB, wild type (E. coli, UniProt P63284 1-857)
T1 construct: ClpB, E. coli, wild type; also called wt ClpB; wt-ClpB; source: E. coli BB4561, purified as previously described
Assay: co-sedimentation; G6PDH50 aggregates (1 μM) incubated 10 min at 30 °C in refolding buffer with DnaJ, 3.5 μM wt DnaK or variant, with or without 5 μM wt or mutant ClpB, 3 mM ATP with regenerating system, no GrpE; 122,000 x g, 40 min, 4 °C; pellets on SDS-PAGE or NuPAGE, densitometry, controls with native G6PDH subtracted
Details: both partners purified

B1: DnaK_(D526A) (natural protein)
chain: not shown
notes: DnaK, E. coli, with D526A (hinge of the lid)
Does B1 bind?
Result: binds
